From publication PMC5700166 come the findings set out here.

This is a selection; strong and weak results do not stand in their true shares. The list includes weakly bound sequences.

In this assay the target is T1, GST-Nv-NF-kB (Cys allele) (UniProt E5G601).
T1 sequence: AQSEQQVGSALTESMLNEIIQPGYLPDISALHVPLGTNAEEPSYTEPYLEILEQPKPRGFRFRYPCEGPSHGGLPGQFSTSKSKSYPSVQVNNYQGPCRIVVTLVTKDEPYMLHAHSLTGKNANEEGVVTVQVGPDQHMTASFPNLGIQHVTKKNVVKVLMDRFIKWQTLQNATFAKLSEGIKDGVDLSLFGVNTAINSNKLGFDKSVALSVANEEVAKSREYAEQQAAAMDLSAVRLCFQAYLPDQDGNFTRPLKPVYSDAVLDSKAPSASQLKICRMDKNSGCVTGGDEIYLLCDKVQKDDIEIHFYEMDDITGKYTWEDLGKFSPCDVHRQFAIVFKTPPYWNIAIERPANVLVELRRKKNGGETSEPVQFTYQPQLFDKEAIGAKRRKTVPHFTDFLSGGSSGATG
In words: protein-binding microarray (PBM). Particulars: PBM: ~300 nM protein, 6 mM HEPES pH 7.8, 80 mM KCl, 0.5 mM EDTA, 0.5 mM EGTA, 6% glycerol, 35 ng/ul poly-dIdC, 1% milk, 1 h, room temperature; Ap Aiptasia and Nv Nematostella (sea anemones) / Co Capsaspora / Aq Amphimedon (sponge) / Dm Drosophila / Hu human; RHD is the Rel homology domain; high values mean tight binding; most listed sequences are background and not binding sites; double strand, one strand shown.
“CCGATTAACATCAAGTGGGAAAATGATGTTAATCGGGTCTTGATTCGCTTGACGCTGCTG” showed a binding signal of 4.11 z-score.
For “CCGATTAACATCACAACTTTCCCTGATGTTAATCGGGTCTTGATTCGCTTGACGCTGCTG”, the binding signal came to 5.95 z-score.
As for “CCGATTAACATCAGGGACCTCCCTGATGTTAATCGGGTCTTGATTCGCTTGACGCTGCTG”, the binding signal turned out to be 4.78 z-score.
The same measure for “CCGATTAACATCAAAAAACCCCTTGATGTTAATCGGGTCTTGATTCGCTTGACGCTGCTG”: 8.78 z-score.
Turning to “CCGATTAACATCATATTTTCCCATGATGTTAATCGGGTCTTGATTCGCTTGACGCTGCTG”, the binding signal came out at 4.42 z-score.
For “CCGATTAACATCAGAAATCTCCCTGATGTTAATCGGGTCTTGATTCGCTTGACGCTGCTG” the value was 5.21 z-score; for “CCGATTAACATCAGGGGTCAGTATGATGTTAATCGGGTCTTGATTCGCTTGACGCTGCTG”, 0.481 z-score; for “CCGATTAACATCAGGGGATGCACTGATGTTAATCGGGTCTTGATTCGCTTGACGCTGCTG”, 4.83 z-score.
The same measure for “CCGATTAACATCAGATATCCCCCTGATGTTAATCGGGTCTTGATTCGCTTGACGCTGCTG”: 6.62 z-score.
Turning to “CCGATTAACATCAGGAGAATCCCTGATGTTAATCGGGTCTTGATTCGCTTGACGCTGCTG”, the binding signal amounted to 3.24 z-score.
Consider “CCGATTAACATCAGGCAGTTCCCTGATGTTAATCGGGTCTTGATTCGCTTGACGCTGCTG”, for which the binding signal worked out at 1.3 z-score.
The sequence “CCGATTAACATCAGGACACCCCATGATGTTAATCGGGTCTTGATTCGCTTGACGCTGCTG” came in with a binding signal of 0.579 z-score.
In turn, “CCGATTAACATCATGGGAAGGTTTGATGTTAATCGGGTCTTGATTCGCTTGACGCTGCTG” displayed a binding signal of 1.55 z-score.
“CCGATTAACATCAGGCGAACCCCTGATGTTAATCGGGTCTTGATTCGCTTGACGCTGCTG” displayed a binding signal of 1.1 z-score.
“CCGATTAACATCAATGGGTTTTCTGATGTTAATCGGGTCTTGATTCGCTTGACGCTGCTG” displayed a binding signal of 1.21 z-score.
For the sequence “CCGATTAACATCACGGAAATACCTGATGTTAATCGGGTCTTGATTCGCTTGACGCTGCTG”, the binding signal was found to be 0.416 z-score.
“CCGATTAACATCAGGGGATAATATGATGTTAATCGGGTCTTGATTCGCTTGACGCTGCTG” showed a binding signal of 5.47 z-score.
“CCGATTAACATCAATAACCCCCATGATGTTAATCGGGTCTTGATTCGCTTGACGCTGCTG” showed a binding signal of 4.47 z-score.
The sequence “CCGATTAACATCACCCCAAACGCTGATGTTAATCGGGTCTTGATTCGCTTGACGCTGCTG” had a binding signal of 0.48 z-score.
Consider “CCGATTAACATCAGGAACCCCCATGATGTTAATCGGGTCTTGATTCGCTTGACGCTGCTG”, for which the binding signal came out at 5 z-score.
“CCGATTAACATCACAACCCCCCCTGATGTTAATCGGGTCTTGATTCGCTTGACGCTGCTG”: the binding signal came out at 3.59 z-score.
“CCGATTAACATCAGGAGGTTCCCTGATGTTAATCGGGTCTTGATTCGCTTGACGCTGCTG”: the binding signal was 0.731 z-score.
As to “CCGATTAACATCAGGGGTAGAACTGATGTTAATCGGGTCTTGATTCGCTTGACGCTGCTG”, the binding signal was determined as 0.839 z-score.
“CCGATTAACATCAAGGGCTTTCCTGATGTTAATCGGGTCTTGATTCGCTTGACGCTGCTG” registered a binding signal of 0.898 z-score.
Sequence “CCGATTAACATCAGGGGTGCCCATGATGTTAATCGGGTCTTGATTCGCTTGACGCTGCTG” had a binding signal of 0.00434 z-score.
Regarding “CCGATTAACATCAGGGAAGTCCATGATGTTAATCGGGTCTTGATTCGCTTGACGCTGCTG”, the binding signal worked out at 2.51 z-score.
As to “CCGATTAACATCAGGGGGAGAGATGATGTTAATCGGGTCTTGATTCGCTTGACGCTGCTG”, the binding signal turned out to be 3.66 z-score.
In turn, “CCGATTAACATCAGGGGATCCCATGATGTTAATCGGGTCTTGATTCGCTTGACGCTGCTG” displayed a binding signal of 5.1 z-score.
The same measure for “CCGATTAACATCAGGGGGTTTCATGATGTTAATCGGGTCTTGATTCGCTTGACGCTGCTG”: 7.15 z-score; for “CCGATTAACATCACTTTTTTCCCTGATGTTAATCGGGTCTTGATTCGCTTGACGCTGCTG”: 4.9 z-score.
The same measure for “CCGATTAACATCAGTCCCGCACTTGATGTTAATCGGGTCTTGATTCGCTTGACGCTGCTG”: 1.95 z-score.
Turning to “CCGATTAACATCAGGGCCCCCCCTGATGTTAATCGGGTCTTGATTCGCTTGACGCTGCTG”, the binding signal is 4.21 z-score.
On to “CCGATTAACATCAGGAACGCCCCTGATGTTAATCGGGTCTTGATTCGCTTGACGCTGCTG”, for which the binding signal came out at 3.22 z-score.
On to “CCGATTAACATCAAGGGGGAGATTGATGTTAATCGGGTCTTGATTCGCTTGACGCTGCTG”, for which the binding signal came to 6.09 z-score.
“CCGATTAACATCAAAAGCCCCCATGATGTTAATCGGGTCTTGATTCGCTTGACGCTGCTG”: the binding signal stood at 6.19 z-score.
The same measure for “CCGATTAACATCAGAAATTTACCTGATGTTAATCGGGTCTTGATTCGCTTGACGCTGCTG”: 2.05 z-score; for “CCGATTAACATCAAGGGAACCCCTGATGTTAATCGGGTCTTGATTCGCTTGACGCTGCTG”: 3.13 z-score; for “CCGATTAACATCAGATATTTCCCTGATGTTAATCGGGTCTTGATTCGCTTGACGCTGCTG”: 5.95 z-score.
For “CCGATTAACATCAGGGGAGTGGATGATGTTAATCGGGTCTTGATTCGCTTGACGCTGCTG” the value was 2.86 z-score.
